Test results as given in patent publication US20210221864A1 (published 2021).

Target: T1, rhFc-CD122 (human, UniProt P14784 27-240)
T1 chain: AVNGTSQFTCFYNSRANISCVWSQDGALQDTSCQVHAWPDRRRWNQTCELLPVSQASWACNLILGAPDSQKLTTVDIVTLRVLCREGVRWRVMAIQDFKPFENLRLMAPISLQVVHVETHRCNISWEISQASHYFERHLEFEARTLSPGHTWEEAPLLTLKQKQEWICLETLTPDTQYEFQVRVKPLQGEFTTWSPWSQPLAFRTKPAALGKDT
Experiment: SPR

- Kd: 342 nM
B1: 329141 construct (IL2-L1-CH2-L2-IL-2Rα-LH masked cytokine receptor binding protein) (other)
chain: [about 150 residues cut from this listing]GGVPLSLYSGNGGPSVFLFPPKPKDTLMISRTPEVTCVVVDVSHEDPEVKFNWYVDGVEVHNAKTKPREEQYNSTYRVVSVLTVLHQDWLNGKEYKCKVSNKALPAPIEKTISKAKGQPGASASGGGMLSLELCDDDPPEIPHATFKAMAYKEGTMLNCECKRGFRRIKSGSLYMLCTGSSSHSSWDNQCQCTSSATRSTTKQVTPQPEEQKERKTTEMQSPMQPVDQASLPGHCREPPPWENEATERIYHFVVGQMVYYQCVQGYRALHRGPAESVCKMTHGKTRWTQPQLICTGEASGGGGHHHHHH
